# Hit rate of the full screen: of about 150,000 compounds, about 190 (0.13%) were called active. Inconclusive means that the source gave no clear call. Such entries were picked first, then a sample of the others. Calls come from the whole dose curve; as a rule, active = well fitted inhibition curve with a large enough effect; inconclusive = small, poorly fitted or top-dose-only effect; inactive = flat fitted curve, though single readings scatter. A potency beside an inconclusive call is a rough fit, not a confirmed value.
# Target: Polyunsaturated fatty acid lipoxygenase ALOX12 (Homo sapiens) (UniProt P18054)
# Experiment: qHTS Assay for Inhibitors of 12-hLO (12-human lipoxygenase); note: nearly all actives have a fitted effect of over 55% in size
# Settings: purified 12-hLO, xylenol orange hydroperoxide absorbance; series mostly up to 57.1 µM
# In short: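 Hydroperoxide output read as Fe(III)-xylenol orange absorbance, 573-to-405 nm ratio, after 30 min reaction with 40 uM arachidonic acid. Enzyme: 150 nM purified human 12hLO, 15 min compound preincubation; 25 mM Hepes pH 7.0, room temperature.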
# Potency is the fitted concentration of half-maximal effect; tags give direction and shape of the fitted curve.
# Sequence of UniProt P18054 (P18054 whole entry, looked up): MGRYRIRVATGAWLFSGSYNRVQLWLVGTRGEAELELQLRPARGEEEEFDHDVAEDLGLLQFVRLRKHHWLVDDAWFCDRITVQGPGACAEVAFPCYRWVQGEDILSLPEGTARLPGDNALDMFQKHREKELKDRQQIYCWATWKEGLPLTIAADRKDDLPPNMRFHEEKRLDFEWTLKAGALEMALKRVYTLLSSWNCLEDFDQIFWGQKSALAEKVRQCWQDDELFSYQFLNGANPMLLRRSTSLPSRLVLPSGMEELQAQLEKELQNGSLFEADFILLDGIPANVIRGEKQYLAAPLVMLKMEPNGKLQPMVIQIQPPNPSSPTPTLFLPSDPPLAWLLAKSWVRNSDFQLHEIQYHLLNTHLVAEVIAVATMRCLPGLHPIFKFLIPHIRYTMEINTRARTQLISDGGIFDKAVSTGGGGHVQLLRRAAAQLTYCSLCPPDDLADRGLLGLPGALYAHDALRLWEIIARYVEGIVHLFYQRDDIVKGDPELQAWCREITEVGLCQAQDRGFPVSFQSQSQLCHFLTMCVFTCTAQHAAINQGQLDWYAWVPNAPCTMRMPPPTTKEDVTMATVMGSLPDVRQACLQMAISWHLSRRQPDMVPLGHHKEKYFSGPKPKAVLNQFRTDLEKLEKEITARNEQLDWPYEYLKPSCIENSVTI
row,SMILES,Potency
1,Cc1coc2c(O)cc3c(c12)OC1(N2CCCCC2)C(=O)NCCCC31 (stereo not given),"inconclusive: 31.6 µM [inhibitor, single point]"
2,C=CCOc1c(Cl)cc(CNc2ccc(N(C)C)cc2)cc1OC,"inconclusive: 5.01 µM [inhibitor, partial curve]"
3,CSC(=Nc1ccccc1)C1=C(O)COC1=O,inactive
4,COc1ccc(CCNC(=S)Nc2cccc(C)c2C)cc1,"inconclusive: 31.6 µM [inhibitor, single point]"
5,Cc1cc(-c2c(C)[nH]n(-c3ccc(Cl)cc3)c2=O)n[nH]1,"inconclusive: 2.82 µM [inhibitor, partial curve]"
6,O=C1NN(c2ccccc2)C(=O)/C1=C\c1cccc(OC(=O)c2cccs2)c1,"inconclusive: 35.5 µM [inhibitor, single point]"
7,COc1ccc(OCC(=O)Nc2ccc(C)cc2)cc1,inactive
8,CCOc1ccc(S(=O)(=O)Nc2cc(Sc3ncn[nH]3)c3oc(=O)sc3c2)cc1,"inconclusive: 22.4 µM [inhibitor, partial curve]"
9,CC1CCCC(NC(=S)NC(=O)c2ccccc2Br)C1C (stereo not given),"inconclusive: 3.55 µM [inhibitor, full curve]"
10,O=Cc1ccccc1Cl,inactive
11,O=C(NCc1ccccc1)C1CCC1,inactive
12,CCOC(=O)NC[C@H](Cc1ccc(OCCc2nc(-c3ccccc3)oc2C)cc1)N/C(C)=C\C(=O)c1ccc(C(F)(F)F)cc1,inactive
13,Cc1cc(C(=O)Nc2cccnc2Cl)on1,"inconclusive: 39.8 µM [inhibitor, single point]"
14,O=c1[nH]c(=O)n([C@H]2C[C@H](O)[C@@H](CO)O2)cc1C(F)(F)F,"inconclusive: 11.2 µM [inhibitor, partial curve]"
15,CCCCCCCCNC(C)C(O)c1ccc(SC(C)C)cc1 (stereo not given),inactive
16,CC1CCCCN1CCNS(=O)(=O)c1ccc2c(c1)oc(=O)n2C (stereo not given),inactive
17,S=C1NCCc2ccc(Cl)cc2C1c1ccccc1Cl (stereo not given),"inconclusive: 22.4 µM [inhibitor, single point]"
18,O=C(OCn1ncc(Cl)c(Cl)c1=O)c1ccccc1Cl,inactive
19,CC(C)c1ccc(NC(=S)NN(c2ccccc2)c2ccccc2)cc1,"inconclusive: 25.1 µM [inhibitor, partial curve]"
20,COc1cccc(-c2cc(C(=O)Nc3nc4ccccc4s3)c3ccccc3n2)c1,"inconclusive: 22.4 µM [inhibitor, partial curve]"
21,CCCOc1ccc(Br)cc1-c1cc(-c2ccc(Cl)cc2)[nH]c1-c1ccncc1,inactive
22,CN1C(=O)CC(N2CCC(c3nc4ccccc4[nH]3)CC2)C1=O (stereo not given),inactive
23,COc1ccc(O)c(-c2c(-c3ccc(Cl)cc3)n[nH]c2C)c1,"inconclusive: 7.94 µM [inhibitor, partial curve]"
24,O=C(NCc1ccc(F)cc1)c1cc2sccc2n1Cc1ccc(F)cc1,inactive
25,O=C(/C=C/c1ccccc1)N1CCN(Cc2nc3ccccc3c(=O)[nH]2)CC1,inactive

row,SMILES,Potency
1,COCC(=O)Nc1ccc(C(C)C)cc1,inactive
2,Cc1cccc(C(=O)NC(=S)Nc2ccc(N3CCOCC3)cc2)c1,"inconclusive: 22.4 µM [inhibitor, single point]"
3,COC(=O)c1cc(NC(=O)N2c3ccccc3Sc3ccccc32)cc(C(=O)OC)c1,"inconclusive: 28.2 µM [inhibitor, single point]"
4,NCCC[C@@H](CC(=O)N[C@@H]1CCCC[C@H]1C(=O)N[C@H](CC(=O)N[C@@H](CCC(=O)O)CC(=O)O)Cc1ccccc1)NC(=O)C[C@H](Cc1c[nH]c2ccccc12)NC(=O)[C@@H]1CCCC[C@H]1N,inactive
5,Cc1cccc(-c2n[nH]c(=S)n2Cc2ccccc2)c1,"inconclusive: 25.1 µM [inhibitor, partial curve]"
6,CCCCN1C(=O)C(O)(CC(=O)c2ccco2)c2cc(Br)ccc21 (stereo not given),inactive
7,CCn1c2ccccc2c2nc3cc(OC)c(OC)cc3nc21,"inconclusive: 39.8 µM [inhibitor, partial curve]"
8,O=C(Nc1ccc(Cl)cc1)NC1CCCCC1Cc1ccco1 (stereo not given),inactive
9,Cc1c2cc(O)c(=O)cc-2oc2cc(O)c(O)cc12,"inconclusive: 1.58 µM [inhibitor, full curve]"
10,N#Cc1cc2c(nc1SCc1cccnc1)CCCC2,"inconclusive: 14.1 µM [inhibitor, partial curve]"
11,NNC(=S)NCc1ccc2c(c1)OCO2,"inconclusive: 39.8 µM [inhibitor, single point]"
12,Cc1cc2c(c(=O)o1)C(C1C=CCCC1)C(C#N)=C(N)O2 (stereo not given),inactive
13,CCc1ccc(C(C)NC(=O)/C=C/c2ccc(Br)cc2)cc1 (stereo not given),inactive
14,COc1ccc2c(c1)CC/C(=C\Nc1ccc3c(c1)OCO3)C2=O,"inconclusive: 7.94 µM [inhibitor, partial curve]"
15,CC(C)(C)c1ccc(-c2n[nH]c(=S)n2C2CCCC2)cc1,"inconclusive: 25.1 µM [inhibitor, partial curve]"
16,Cc1oc(-c2ccc(Cl)cc2)cc1-c1nn2c(-c3ccco3)nnc2s1,"inconclusive: 28.2 µM [inhibitor, single point]"
17,CCOC(=O)c1c(-c2ccc(C)o2)csc1NC(=O)CSc1nnnn1-c1ccccc1,"inconclusive: 15.8 µM [inhibitor, partial curve]"
18,CC(C)CNC(C(=O)Nc1ccc([N+](=O)[O-])cc1Br)c1ccccc1 (stereo not given),inactive
19,COc1ccc(C(C[N+](=O)[O-])c2c(-c3ccccc3)cc3ccccn23)c(OC)c1 (stereo not given),"inconclusive: 3.16 µM [inhibitor, full curve]"
20,Cc1c(C(=O)Nc2nc3ccccc3[nH]2)oc2ccc(Br)cc12,inactive
21,c1ccc(-c2nc(NCc3cccnc3)c3oc4ccccc4c3n2)cc1,"inconclusive: 20 µM [inhibitor, partial curve]"
22,COC(=O)c1ccc(CS(=O)(=O)c2ccccc2C)o1,"inconclusive: 7.94 µM [inhibitor, partial curve]"
23,CCCCS(=O)CC(COc1ccc(Cl)cc1)OC(=O)c1ccccc1 (stereo not given),"inconclusive: 28.2 µM [inhibitor, single point]"
24,Cc1cc(C)c2cc(CN(CC3CCCO3)S(=O)(=O)c3ccc4c(c3)OCCO4)c(=O)[nH]c2c1 (stereo not given),"inconclusive: 25.1 µM [inhibitor, partial curve]"
25,Cc1ccc(S(=O)(=O)NNc2nc3ccccc3nc2C(F)(F)F)cc1,"inconclusive: 25.1 µM [inhibitor, single point]"

row,SMILES,Potency
1,COc1ccc2c3c(cccc13)N(C)N=C2C,"inconclusive: 39.8 µM [inhibitor, single point]"
2,COc1ccc(C(=O)NC(=S)NC(C)(C)C)cc1Br,"inconclusive: 31.6 µM [inhibitor, single point]"
3,CCc1cccc(NC(=O)CN(c2ccc(OC)cc2)S(=O)(=O)c2c(C)n[nH]c2C)c1,"inconclusive: 17.8 µM [inhibitor, partial curve]"
4,CCc1cccc(C)c1NC(=S)NCCc1c(C)[nH]c2ccc(C)cc12,"inconclusive: 35.5 µM [inhibitor, single point]"
5,COc1cccc(C(=O)N(C)c2nnc(-c3ccncc3)s2)c1,inactive
6,CCCCNC(=S)N/N=C/C1=CCC2CC1C2(C)C (stereo not given),"inconclusive: 39.8 µM [inhibitor, single point]"
7,C=CCCC(=O)Nc1nc(C)c(-c2csc(Nc3ccc(Cl)cc3Cl)n2)s1,"inconclusive: 22.4 µM [inhibitor, partial curve]"
8,CC(C)(C)C(=O)NC(=S)Nc1cc(C(=O)O)ccc1Cl,"inconclusive: 15.8 µM [inhibitor, partial curve]"
9,Cc1ccc(OCCn2cc(C(=S)N3CCCC3)c3ccccc32)cc1C,"inconclusive: 35.5 µM [inhibitor, single point]"
10,CC1CCN(c2ccccc2NC(=S)NC(=O)c2cccs2)CC1,"inconclusive: 31.6 µM [inhibitor, single point]"
11,Cc1ccc(C(=O)NNC(=S)NC(=O)c2ccc(Cl)cc2)cc1,"inconclusive: 7.94 µM [inhibitor, partial curve]"
12,CC(CN1c2ccccc2Sc2ccccc21)N(C)C (stereo not given),inactive
13,COC(=O)c1c(NC(=O)CC2SCC(C(=O)OC)NC2=O)sc2c1CCCC2 (stereo not given),"inconclusive: 28.2 µM [inhibitor, single point]"
14,O=C(CSc1ccc2nnc(-c3ccc(Cl)cc3)n2n1)N1CCc2ccccc21,inactive
15,O=C(c1ccco1)N1CCC2(CC1)CN(c1cccc(-c3ccccc3)c1)C2,inactive
16,O=C1S/C(=C/c2ccc(N3CCOCC3)o2)C(=O)N1Cc1ccc(F)cc1,"inconclusive: 8.91 µM [inhibitor, partial curve]"
17,CN(CC(=O)NCc1ccco1)S(=O)(=O)c1cccc2cccnc12,"inconclusive: 20 µM [inhibitor, single point]"
18,COc1ccc(CNC(=O)CSc2nnnn2-c2ccccc2)cc1,inactive
19,CC(C)NC(=O)NC(=O)COC(=O)c1ccc(F)cc1F,inactive
20,O=C(NC(=S)NCC1CCCO1)c1ccccc1 (stereo not given),"inconclusive: 15.8 µM [inhibitor, partial curve]"
21,O=C(O)c1ccccc1Nc1ccc([N+](=O)[O-])cc1,inactive
22,C=C(C)[C@@H]1CCC2(C(=O)O)CC[C@]3(C)[C@H](CC[C@@H]4[C@@]5(C)CCC(=O)C(C)(C)[C@@H]5CC[C@]43C)[C@@H]12 (stereo not given in full),inactive
23,Cc1ccc2c(c1)OC(=O)CC2c1ccccc1 (stereo not given),inactive
24,c1ccc(-c2cnn3nnnc3n2)cc1,inactive
25,Cn1cnnc1SCc1ccc(-c2ccc(Br)cc2)o1,"inconclusive: 7.94 µM [inhibitor, partial curve]"

# — PubChem BioAssay AID1452 (National Center for Advancing Translational Sciences (NCATS), 2008)
